{"source": "patent US20230140838A9", "about": "“NOVEL ACTIVITY-BASED PROBES FOR NEUTROPHIL ELASTASE AND THEIR USE” (Takeda Pharmaceutical Company Limited, priority 2018, published 2023)", "key": {"[1]": {"system": "secreted serine proteases found in the lumen of the colon", "assay": "Labeling of luminal fluids and fecal pellets from control or TNBS-treated mice", "protocol": "(§1) Tubes were rocked overnight at 4° C.\nColitis was induced in 10-week old male C57BL/6J mice by intracolonic infusion of picrylsulfonic acid solution (2,4,6-Trinitrobenzenesulfonic acid solution, TNBS; Sigma; 2.5 mg dissolved in 50% ethanol). Body weight and symptoms were recorded daily, and mice were humanely killed after three days. Upon colon extraction, luminal fluids were collected by flushing colons with PBS. Solids were removed by centrifugation and supernatant was concentrated using a 3-KDa cut-off centrifugal filter (Amgen). Pieces of proximal and distal colon were frozen for protease analysis or fixed in 4% paraformaldehyde overnight, paraffin embedded, sectioned, and stained with haematoxylin and eosin.\nFurthermore, secreted serine proteases found in the lumen of the colon (either luminal flush or in fecal pellets) were also tested with PK105b (FIG. 6B-C). […] Nonetheless, NE activity could be clearly delineated by PK105b in lysates from colon tissues."}, "[2]": {"molecular_target": "porcine pancreatic trypsin type II-S (beta trypsin) (Sus scrofa, UniProt P00761)", "conditions": "500 ng protease; probe 0, 0.1, 0.5 or 1 μM; 37° C. for 30 minutes", "protocol": "(§2) The reactivity of PK105b against recombinant human serine proteases was tested, and its potency was compared to Cy5-V-DPP. After a brief incubation of increasing amounts of PK105b (0, 0.1, 0.5, or 1 μM) with equal amounts of serine proteases (neutrophil elastase (NE), proteinase-3 (PR-3), or trypsin), the mixtures were resolved by SDS-PAGE and binding of Cy5-V-DPP or PK105b to the serine proteases was detected by in-gel fluorescence."}, "human proteinase-3": {"molecular_target": "T1, human proteinase-3 (Homo sapiens, UniProt P24158)", "T1 sequence (P24158 28-248)": "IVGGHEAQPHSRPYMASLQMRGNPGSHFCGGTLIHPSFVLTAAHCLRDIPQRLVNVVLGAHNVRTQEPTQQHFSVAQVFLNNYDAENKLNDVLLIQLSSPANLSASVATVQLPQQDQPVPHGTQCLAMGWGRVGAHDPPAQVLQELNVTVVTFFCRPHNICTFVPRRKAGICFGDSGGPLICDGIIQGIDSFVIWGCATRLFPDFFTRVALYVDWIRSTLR", "protocol": "as §2"}, "neutrophil elastase (NE)": {"molecular_target": "T2, neutrophil elastase (NE) (Homo sapiens, UniProt P08246)", "T2 construct": "purchased Elastin Products Company", "T2 sequence (P08246 30-267)": "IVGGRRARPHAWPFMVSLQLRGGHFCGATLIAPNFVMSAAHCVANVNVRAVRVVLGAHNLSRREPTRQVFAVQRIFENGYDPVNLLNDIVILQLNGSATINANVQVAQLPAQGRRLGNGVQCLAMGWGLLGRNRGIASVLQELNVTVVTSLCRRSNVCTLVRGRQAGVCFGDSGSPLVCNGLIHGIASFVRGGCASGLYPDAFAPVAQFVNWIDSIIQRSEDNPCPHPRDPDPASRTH", "assay": "Recombinant protease labeling / fluorescent SDS-PAGE, neutrophil elastase", "type": "binding", "conditions": "500 ng recombinant protease; probe 0, 0.1, 0.5 or 1 μM; 37° C. for 30 minutes"}, "[3]": {"system": "serine protease activity in lysates prepared from mouse bone marrow", "protocol": "as §1\nThe ability of PK105b to detect serine protease activity in tissue lysates was tested and compared to Cy5-V-DPP."}}}
{"smiles": "CCC(NC(=O)[C@@H]1CC2CCCCC2N1C(=O)[C@H](CCS(C)(=O)=O)NC(=O)[C@H](CCCCOCc1ccccc1)NC(=O)CCCCCN1/C(=C/C=C/C=C/C2=[N+](CC)c3ccc(S(=O)(=O)[O-])cc3C2(C)C)C(C)(C)c2cc(S(=O)(=O)O)ccc21)P(=O)(Oc1ccccc1)Oc1ccccc1", "note": "(some centres unmarked) [PK105b]", "values": [{"measurement": "labeled proteins in luminal flush and fecal pellets", "setting": "[1]; control or TNBS-treated mice, in-gel fluorescence", "result": "two labeled serine proteases at 25 kDa"}, {"measurement": "identity of labeled species by immunoprecipitation", "setting": "[1]; fecal samples, antibodies to NE, PE, trypsin 3", "result": "low levels of NE in these samples, with pancreatic elastase and trypsin 3 being the predominant species"}, {"measurement": "labeling / binding of trypsin detected by in-gel fluorescence", "setting": "[2]", "result": "labeled trypsin"}, {"measurement": "labeling of PR-3 detected by in-gel fluorescence", "setting": "human proteinase-3; 500 ng recombinant protease, probe 0, 0.1, 0.5 or 1 μM, 37° C. for 30 minutes", "result": "clearly labeled"}, {"measurement": "potency of PR-3 labeling compared between probes", "setting": "human proteinase-3; recombinant PR-3, 0.1-1 μM probe", "result": "more potent than Cy5-V-DPP"}, {"measurement": "labeling of NE detected by in-gel fluorescence", "setting": "neutrophil elastase (NE)", "result": "clearly labeled"}, {"measurement": "potency of labeling in bone marrow lysates compared between probes", "setting": "[3]; 0.1, 0.5 and 1 μM", "result": "greater potency than Cy5-V-DPP"}, {"measurement": "identity of labeled 25-KDa protein by immunoprecipitation with NE-specific antibody", "setting": "[3]; mouse bone marrow lysate", "result": "confirmed to be NE"}]}
